Sequences with one replicate were seen in a single cluster, so their values are uncertain.
Each sequence was assayed on ATP (assay: switch fluorescence ratio, 500 uM ATP over buffer (Cy3 cluster intensity, sum of 5 cycles each) (fold (ratio)); higher = stronger signal-on switching upon ATP binding; sequences stand for … in TCGTCGGCAGCGTCAGATGTGTATAAGAGACAGTTTTTTTTTTTTTTTTTTTTTTTTT…TC). Settings: aptamer strand: ATP DNA aptamer (quencher-CACCTGGGGGAGTATTGCGGAGGAAGG + anchor), 100 nM annealed; ATP concentration: 500 uM; one replicate.
Method in brief: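 Switching-strand clusters labelled with Cy3 on a modified Illumina MiSeq flow-cell were annealed to 100 nM quencher-labelled ATP aptamer, imaged in selection buffer, and re-imaged after 15 min with 500 uM ATP at 22 °C. This was done over five cycles with NaOH stripping and re-annealing in between. The fluorescence ratio is summed target-cycle over summed buffer-cycle Cy3 intensity per cluster, averaged per switch-domain sequence, excluding clusters outside 100-1000 RFU.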
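Further: ATP exposure 15 min at 22 °C before imaging.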

Sequence | switch fluorescence ratio
ATAGGGGCAA | 1.11
ATAGGTGAGG | 1.01
ATAGGTTCCT | 1.01
ATAGTAATAT | 1.08
ATAGTATAA | 1.04
ATAGTCACCC | 1.07
ATAGTCATCG | 0.99
ATAGTCTGGA | 1.01
ATAGTTCGAT | 0.987
ATAGTTTTCA | 1
ATATAAAGCG | 0.952
ATATAAGAAC | 1.27
ATATAAGATT | 1.02
ATATACAAAC | 1.14
ATATACGAGC | 1.05
ATATAGAGCG | 0.958
ATATATTGAA | 0.979
ATATATTGGA | 0.992
ATATCACATG | 1.01
ATATCACGGT | 1.02
ATATCAGGTT | 1.01
ATATCCGTGT | 0.988
ATATCGAAAG | 0.99
ATATCGCTGT | 1.01
ATATCTGTGT | 0.946
ATATCTTCGG | 1.07

Sequence | switch fluorescence ratio
ATATCTTTGT | 0.954
ATATGAACTA | 1.02
ATATGATACC | 1.01
ATATGCTAGG | 0.968
ATATGCTATG | 1.02
ATATGGAGGC | 0.964
ATATGGCGCA | 0.95
ATATGGGAGA | 1
ATATGGGC | 1.01
ATATGTAAAA | 1
ATATTAAGCA | 0.961
ATATTAATCC | 1.01
ATATTACCGC | 1.11
ATATTATCTG | 1.02
ATATTCGTTT | 0.995
ATATTCTG | 1.03
ATATTGGGAA | 0.985
ATATTTAGGA | 0.966
ATATTTGCTC | 1.01
ATCAAATGCA | 1
ATCAACCAGG | 3.39
ATCAAGGAAC | 1
ATCAAGGCCA | 1
ATCAAGGCTG | 1.14
ATCAATGCTA | 1.03
ATCACAGGA | 0.999

Sequence | switch fluorescence ratio
ATCACGGATA | 1.04
ATCACGGTAG | 0.972
ATCACTCTT | 1.05
ATCACTTCAC | 1.26
ATCAGACGGT | 1.02
ATCAGCTCCG | 1.06
ATCAGGGAGC | 1.03
ATCAGGGT | 0.98
ATCAGTCAGC | 0.972
ATCAGTCCCT | 1.01
ATCATAATGC | 1.04
ATCATAGACT | 1.02
ATCATAGTTA | 0.967
ATCATATGGG | 1.02
ATCATCGTCA | 1.01
ATCATGTGCC | 0.993
ATCATTTCTG | 0.967
ATCATTTTAT | 0.985
ATCCAAAAGG | 0.977
ATCCAACTAT | 1.02
ATCCAAGGGA | 1.01
ATCCACGCCC | 1.23
ATCCAGCGGC | 1.04
ATCCATCGAT | 1.01
ATCCATGAGG | 1
ATCCATGGCA | 0.979

Sequence | switch fluorescence ratio
ATCCATGTAA | 1.01
ATCCCAAGC | 1.39
ATCCCACCGT | 1.08
ATCCCCTTGG | 1.85
ATCCCGCCCG | 1.07
ATCCCGTATA | 1.04
ATCCCTACG | 1.08
ATCCGATTCT | 1.01
ATCCGCACTA | 2.32
ATCCGCTGAC | 3.83
ATCCGGAGTA | 1.43
ATCCGGGGGC | 1.16
ATCCGTAGA | 1.09
ATCCGTGGGC | 1.26
ATCCGTTGGT | 1.06
ATCCTCGCCG | 1.01
ATCCTCGCCT | 3.79
ATCCTCGGCT | 1.03
ATCCTCGGGC | 1.04
ATCCTGACAT | 1.01
ATCCTGCGCA | 6.99
ATCCTGTGAC | 1.2
ATCCTTAACG | 1.01
